From the supplement of paper PMC3334620
Over roughly 33,000 sequences, “E-score (-0.5 to 0.5)” has its median near -0.021; the highest 2% begin near 0.32. This is one part of the list.

Target: T1, Zap1 (UniProt P47043)
T1 sequence: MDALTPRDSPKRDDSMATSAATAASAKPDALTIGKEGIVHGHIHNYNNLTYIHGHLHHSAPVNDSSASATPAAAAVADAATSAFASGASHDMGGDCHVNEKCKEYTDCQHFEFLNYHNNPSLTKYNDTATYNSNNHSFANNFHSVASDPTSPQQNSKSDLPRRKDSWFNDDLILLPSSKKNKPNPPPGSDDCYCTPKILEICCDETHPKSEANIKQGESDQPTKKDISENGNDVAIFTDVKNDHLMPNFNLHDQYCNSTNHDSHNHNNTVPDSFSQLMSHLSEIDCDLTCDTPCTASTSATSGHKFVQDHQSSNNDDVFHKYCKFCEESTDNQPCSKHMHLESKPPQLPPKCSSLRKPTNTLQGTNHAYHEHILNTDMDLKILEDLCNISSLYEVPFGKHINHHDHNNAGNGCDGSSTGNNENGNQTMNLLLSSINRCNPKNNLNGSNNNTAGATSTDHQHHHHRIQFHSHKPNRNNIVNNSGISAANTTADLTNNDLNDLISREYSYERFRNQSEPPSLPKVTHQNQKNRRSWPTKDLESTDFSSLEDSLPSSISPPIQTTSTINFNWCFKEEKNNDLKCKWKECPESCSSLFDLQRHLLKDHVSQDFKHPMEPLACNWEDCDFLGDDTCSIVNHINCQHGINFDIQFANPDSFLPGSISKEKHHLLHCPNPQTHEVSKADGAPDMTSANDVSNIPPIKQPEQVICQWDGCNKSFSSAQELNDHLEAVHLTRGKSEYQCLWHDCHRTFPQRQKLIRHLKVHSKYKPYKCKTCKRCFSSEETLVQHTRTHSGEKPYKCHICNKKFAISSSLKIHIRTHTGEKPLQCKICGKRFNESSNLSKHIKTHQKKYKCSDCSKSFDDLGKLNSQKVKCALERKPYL
Assay: PBM E-score (8-mer binding enrichment) (E-score (-0.5 to 0.5)); higher = stronger / more preferred TF binding; most listed sequences are background and not binding sites
Details: protein concentration: 200 nM; construct: GST-full length
In short: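 E-scores (a modified Wilcoxon-Mann-Whitney statistic) were assigned by the Universal PBM Analysis Suite to every ungapped eight-base word pooled with its reverse complement. The input came from universal all-10-mer Agilent arrays made double-stranded by primer extension and probed with GST-tagged yeast transcription factors at about 100-200 nM. Fluorescent anti-GST detected bound protein, and masliner normalised the scans.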

| Sequence | PBM E-score |
| --- | --- |
| ATAAAGGA | -0.0605 |
| ACCGTTCA | 0.02 |
| ATGGGTGG | -0.0593 |
| ACGCAGAC | -0.169 |
| ATGTGACG | -0.0996 |
| GTGCAAGA | 0.0237 |
| ACTCACAT | -0.0862 |
| ATTATTCC | 0.128 |
| GCCCGCCC | -0.176 |
| GTTAACCA | 0.338 |
| CACAGTAA | 0.203 |
| GAAAGTGC | -0.178 |
| CTTTAAGA | 0.255 |
| GAGCGACA | -0.0711 |
| GCTGAGCA | -0.146 |
| CGGAAGAG | -0.0687 |
| GGATATGA | 0.0866 |
| ACAAACTC | -0.0432 |
| AAAAATAC | 0.0953 |
| ACCTACGG | -0.167 |
| CTCTCGAA | 0.0806 |
| GTGAACTA | 0.0669 |
| AAGTCGGA | -0.022 |
| AATCAGAT | -0.0999 |
| GAAGGAAC | -0.0592 |

| Sequence | PBM E-score |
| --- | --- |
| TGCCGCCA | -0.0646 |
| AGCTCGAG | -0.0098 |
| CGTATACG | 0.00634 |
| AACTAGAC | 0.0394 |
| GAATTTCC | 0.0639 |
| ATCAGGCC | -0.163 |
| GTCATATA | 0.103 |
| GAGCGCAC | -0.28 |
| CAGAGGCG | -0.171 |
| CAGTCTTC | -0.293 |
| AAGTGAAT | 0.13 |
| TAGTTACA | 0.158 |
| CTCGCCAG | -0.0146 |
| CACCCGGC | -0.282 |
| GTCCGGAC | 0.0507 |
| ACCAATCG | 0.0293 |
| ACTCGCTG | -0.0868 |
| GTTCCAAC | 0.106 |
| ACCTCAGG | 0.12 |
| AGAATGAC | -0.0217 |
| CACTCGAA | -0.057 |
| CTCTACCA | -0.00346 |
| AGAGGGAT | -0.136 |
| AGTAGTGA | -0.0185 |
| GGCTATCA | -0.0212 |

| Sequence | PBM E-score |
| --- | --- |
| AGGGAGGG | -0.0587 |
| GCGGACAA | 0.0496 |
| AAGAGTTG | -0.0115 |
| AGTATGCA | -0.0396 |
| CTACGAGA | -0.0215 |
| ATGCTTGG | -0.157 |
| CATGCGCG | -0.0649 |
| ATCGATCC | -0.193 |
| AAGAAGTC | -0.0784 |
| AGAAGAGA | -0.205 |
| ATTTTTCA | 0.0605 |
| CCTCCCCG | 0.0923 |
| AGGAATTA | -0.0385 |
| CGATCAAA | -0.0713 |
| TAACCGCA | 0.426 |
| GGGTTAAA | 0.443 |
| GGTCCGAC | -0.053 |
| AATGGAGC | -0.168 |
| CAGTTTCG | -0.0054 |
| CTTCTGTA | 0.117 |
| GCGACCGA | 0.0401 |
| AACTTCCC | -0.188 |
| CGAGAAAG | -0.102 |
| AAGTTTGC | -0.00289 |
| CGAGCAGA | -0.189 |

| Sequence | PBM E-score |
| --- | --- |
| AACGCACA | 0.0441 |
| GCCGCGGC | 0.216 |
| ATCATGGA | -0.265 |
| ATTTCCTC | 0.0612 |
| CATAGCGG | -0.155 |
| CGCTCTGC | -0.213 |
| AACTCGTA | 0.0754 |
| CAGATTCG | 0.0678 |
| CCAGACCC | -0.0238 |
| ACCAGATG | 0.0966 |
| CCGAGGGA | -0.206 |
| GGTGACAC | 0.0434 |
| AGGCGCCA | -0.202 |
| CGGGCCCC | 0.0471 |
| GGGACTCA | -0.183 |
| TCGCACGA | -0.152 |
| CCTGCTCC | -0.129 |
| AATCATGA | 0.23 |
| AATAAAAG | 0.0506 |
| CCAAGTCA | -0.124 |
| TCAAGACA | -0.154 |
| AGTTTGGC | -0.00783 |
| AAAAACTT | 0.0552 |
| CAGCGGGC | -0.212 |
| CAAACAGG | 0.11 |

| Sequence | PBM E-score |
| --- | --- |
| CAGCTCCA | -0.123 |
| AATACAAG | 0.204 |
| CCGCCCCC | -0.343 |
| CTCGAAAC | 0.0951 |
| GCTTCATA | -0.00903 |
| AAGCAAAA | 0.181 |
| CACACGGG | -0.0693 |
| CTGTGGGA | -0.163 |
| CTAATTTC | 0.0406 |
| TAGAGAAA | 0.0849 |
| GCGATAGC | -0.138 |
| CAAATACA | 0.0399 |
| AGCTCACC | -0.174 |
| ACAACCAT | 0.322 |
| AGTCCGAG | -0.0989 |
| AGCACTGG | -0.0411 |
| GATCCAAA | 0.0695 |
| CCACTGAG | -0.00988 |
| TACTACTA | 0.267 |
| ACCGCATC | 0.144 |
| AGATCACC | 0.0422 |
| CGCGATTC | -0.109 |
| CTCATCTA | 0.102 |
| ACACTCGT | -0.0522 |
| AACATTAA | 0.143 |

| Sequence | PBM E-score |
| --- | --- |
| TACCGGGA | 0.0137 |
| AGTACAGA | 0.0397 |
| CGAATCAG | -0.207 |
| ATACCTAG | 0.0153 |
| AAGAGGAG | -0.199 |
| AGTGTGTA | 0.0485 |
| CACCTTTA | 0.118 |
| GAGTTATC | 0.108 |
| GATTCAAA | -0.0314 |
| CATCCCAC | -0.0285 |
| ACTAATGG | 0.202 |
| GATAGTGC | -0.209 |
| CAGAGCCG | -0.066 |
| CGGCGCCA | -0.132 |
| CCTGACAC | -0.109 |
| ACGCCCCG | 0.0434 |
| CAAATTCA | -0.169 |
| AATGTCCA | 0.057 |
| GTTTGGGA | 0.0131 |
| AACAAGCT | -0.0792 |
| CCACCCGC | 0.269 |
| ACACCACT | 0.217 |
| GTAATTGA | 0.0961 |
| GATTTACC | 0.021 |
| CTAGCTAC | -0.193 |

| Sequence | PBM E-score |
| --- | --- |
| ATGGCAAT | -0.109 |
| GACCGGGA | -0.0808 |
| GAACTTCC | -0.25 |
| TGGTATAA | 0.231 |
| AGATATCA | -0.0283 |
| CATAACGC | 0.0481 |
| CATAGCGC | -0.12 |
| AAACGAAA | 0.0922 |
| AAGCTCAG | -0.127 |
| TAAGCTCA | -0.227 |
| CCACACGA | -0.06 |
| CGTTTGAG | -0.0505 |
| AACGCGTT | 0.00119 |
| GTTCCCCA | 0.179 |
| TAGGAACA | -0.0136 |
| GATGTGAA | -0.0219 |
| GATATACC | -0.00451 |
| AAACTTCC | -0.0232 |
| CTGTGGGC | 0.0073 |
| GGCACCGA | 0.0124 |
| CCATACCC | 0.29 |
| CGGAGACA | -0.076 |
| AGGAGGGC | -0.249 |
| CTGGGAGC | -0.315 |
| CCATTCCA | 0.022 |

| Sequence | PBM E-score |
| --- | --- |
| AACGCGTC | -0.155 |
| CAACAGAG | 0.0227 |
| AAAACATC | 0.075 |
| GCGAAATA | 0.15 |
| CGCGGTGA | 0.144 |
| GAAGCAAC | 0.106 |
| CCCCCGGA | -0.235 |
| ACCCTTAT | 0.404 |
| AAAATTCG | 0.0999 |
| AATCGCGC | -0.138 |
| ATCCGAAC | -0.0761 |
| AGCTTTCC | -0.202 |
| AGAGCCGA | 0.0742 |
| AGGTGAGA | 0.069 |
| CTAGTACA | -0.0865 |
| GGCTATTA | 0.0192 |
| CGTACCAA | -0.0153 |
| CTCTGTGA | 0.0873 |
| ACCACGAA | 0.191 |
| ACGTGATG | -0.167 |
| AAACAGCG | -0.0468 |
| GTGGACGA | -0.14 |
| ATGGCAGC | -0.315 |
| CTCACTGC | -0.0511 |
| AGGAAAAC | 0.0388 |

| Sequence | PBM E-score |
| --- | --- |
| GACTATTA | -0.0145 |
| TTTAAAAA | 0.0885 |
| ATGGATAA | 0.0597 |
| CATGTAGG | -0.028 |
| AGGGAATC | -0.204 |
| ATAACGAT | -0.078 |
| AGGGAAGA | -0.27 |
| AGCCGTCG | -0.189 |
| AAATACTG | 0.0368 |
| ACTGCGCG | -0.107 |
| CACGGAGG | -0.015 |
| CATACGGG | -0.0467 |
| CAAGTATA | -0.105 |
| ACGGCTGC | -0.121 |
| CTCAGGAG | -0.089 |
| CAGACTAG | -0.0657 |
| CCATCGAA | -0.0466 |
| CACCAGTG | -0.0732 |
| AGTTTCAC | 0.00705 |
